Assay [1] has as its target Src homology region 2 domain-containing phosphatase-1 (Shp1), endogenous (human (endogenous in A375MM)) (UniProt P29350). In words: co-IP; A375MM cells on gelatin-coated dishes for 16 h; 1 mg lysate with 2 μg anti-Shp1 polyclonal antibody O/N at 4 °C, protein A Sepharose; lysis buffer 20 mM Tris-HCl pH 8.0, 150 mM NaCl, 1% Triton-X100; western blot. (Immunoblotting shows a protein as a band on a membrane.)

Sequences of proteins named here, by UniProt entry; tags and fusion partners are left off. A change or cut given only in a name is not applied to a line headed by its entry. A line that says so, or that is headed by a name, gives the form on record, which may keep a tag or linker.
Src homology region 2 domain-containing phosphatase-1 (Shp1), endogenous (human (endogenous in A375MM)) (P29350, form named): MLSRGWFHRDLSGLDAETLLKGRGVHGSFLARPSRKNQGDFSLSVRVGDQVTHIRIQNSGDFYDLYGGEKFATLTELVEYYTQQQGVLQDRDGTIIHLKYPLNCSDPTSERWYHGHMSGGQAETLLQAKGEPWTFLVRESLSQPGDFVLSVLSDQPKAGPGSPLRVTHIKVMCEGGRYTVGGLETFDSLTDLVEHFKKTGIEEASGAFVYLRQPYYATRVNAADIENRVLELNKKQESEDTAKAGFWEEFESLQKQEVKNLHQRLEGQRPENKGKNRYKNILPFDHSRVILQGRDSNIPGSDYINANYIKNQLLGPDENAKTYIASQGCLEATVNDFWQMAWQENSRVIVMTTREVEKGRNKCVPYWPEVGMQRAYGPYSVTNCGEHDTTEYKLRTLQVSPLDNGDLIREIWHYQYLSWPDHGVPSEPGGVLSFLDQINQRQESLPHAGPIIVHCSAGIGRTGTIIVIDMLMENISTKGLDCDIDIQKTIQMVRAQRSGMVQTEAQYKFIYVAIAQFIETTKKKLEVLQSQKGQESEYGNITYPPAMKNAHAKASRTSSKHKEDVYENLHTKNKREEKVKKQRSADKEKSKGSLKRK
UniProt P60953: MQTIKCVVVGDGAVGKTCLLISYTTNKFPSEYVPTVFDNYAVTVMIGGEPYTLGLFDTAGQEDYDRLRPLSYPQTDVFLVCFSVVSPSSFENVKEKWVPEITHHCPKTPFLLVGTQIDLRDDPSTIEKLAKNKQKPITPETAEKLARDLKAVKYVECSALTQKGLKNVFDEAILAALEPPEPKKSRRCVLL
UniProt P27361: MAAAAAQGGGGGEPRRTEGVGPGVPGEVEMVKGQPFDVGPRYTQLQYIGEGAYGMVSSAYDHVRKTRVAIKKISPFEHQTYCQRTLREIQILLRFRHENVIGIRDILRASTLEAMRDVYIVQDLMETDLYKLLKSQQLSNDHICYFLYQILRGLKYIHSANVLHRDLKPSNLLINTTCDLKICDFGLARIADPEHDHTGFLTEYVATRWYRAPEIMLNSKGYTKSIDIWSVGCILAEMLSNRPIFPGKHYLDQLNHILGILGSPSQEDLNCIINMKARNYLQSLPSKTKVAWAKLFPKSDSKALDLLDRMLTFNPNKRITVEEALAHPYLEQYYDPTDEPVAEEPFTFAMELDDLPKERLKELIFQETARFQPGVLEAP
UniProt P28482: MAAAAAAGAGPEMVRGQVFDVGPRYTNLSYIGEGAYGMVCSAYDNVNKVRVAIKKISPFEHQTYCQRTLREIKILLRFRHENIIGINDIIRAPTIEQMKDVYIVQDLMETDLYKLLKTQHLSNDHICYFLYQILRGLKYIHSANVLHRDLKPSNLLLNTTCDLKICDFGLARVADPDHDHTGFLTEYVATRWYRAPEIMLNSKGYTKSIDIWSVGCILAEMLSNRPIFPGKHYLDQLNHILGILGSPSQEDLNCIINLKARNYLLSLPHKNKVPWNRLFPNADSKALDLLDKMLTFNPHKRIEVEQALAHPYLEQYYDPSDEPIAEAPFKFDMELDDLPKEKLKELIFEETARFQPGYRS
UniProt Q14247: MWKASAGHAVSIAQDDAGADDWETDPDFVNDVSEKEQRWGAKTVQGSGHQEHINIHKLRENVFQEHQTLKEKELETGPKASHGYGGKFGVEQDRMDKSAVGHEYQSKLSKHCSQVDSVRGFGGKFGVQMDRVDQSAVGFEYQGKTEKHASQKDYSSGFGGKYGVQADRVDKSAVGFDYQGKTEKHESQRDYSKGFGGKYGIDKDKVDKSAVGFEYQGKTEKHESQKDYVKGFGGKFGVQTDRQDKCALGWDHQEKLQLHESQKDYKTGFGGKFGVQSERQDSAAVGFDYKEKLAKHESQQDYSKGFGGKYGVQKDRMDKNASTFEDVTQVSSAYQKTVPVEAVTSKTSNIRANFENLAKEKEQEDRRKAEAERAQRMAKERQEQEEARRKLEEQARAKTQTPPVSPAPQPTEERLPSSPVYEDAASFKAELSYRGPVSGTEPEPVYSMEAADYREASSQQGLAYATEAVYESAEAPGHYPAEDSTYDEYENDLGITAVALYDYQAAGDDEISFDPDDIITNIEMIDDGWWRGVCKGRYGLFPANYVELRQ
UniProt Q05397: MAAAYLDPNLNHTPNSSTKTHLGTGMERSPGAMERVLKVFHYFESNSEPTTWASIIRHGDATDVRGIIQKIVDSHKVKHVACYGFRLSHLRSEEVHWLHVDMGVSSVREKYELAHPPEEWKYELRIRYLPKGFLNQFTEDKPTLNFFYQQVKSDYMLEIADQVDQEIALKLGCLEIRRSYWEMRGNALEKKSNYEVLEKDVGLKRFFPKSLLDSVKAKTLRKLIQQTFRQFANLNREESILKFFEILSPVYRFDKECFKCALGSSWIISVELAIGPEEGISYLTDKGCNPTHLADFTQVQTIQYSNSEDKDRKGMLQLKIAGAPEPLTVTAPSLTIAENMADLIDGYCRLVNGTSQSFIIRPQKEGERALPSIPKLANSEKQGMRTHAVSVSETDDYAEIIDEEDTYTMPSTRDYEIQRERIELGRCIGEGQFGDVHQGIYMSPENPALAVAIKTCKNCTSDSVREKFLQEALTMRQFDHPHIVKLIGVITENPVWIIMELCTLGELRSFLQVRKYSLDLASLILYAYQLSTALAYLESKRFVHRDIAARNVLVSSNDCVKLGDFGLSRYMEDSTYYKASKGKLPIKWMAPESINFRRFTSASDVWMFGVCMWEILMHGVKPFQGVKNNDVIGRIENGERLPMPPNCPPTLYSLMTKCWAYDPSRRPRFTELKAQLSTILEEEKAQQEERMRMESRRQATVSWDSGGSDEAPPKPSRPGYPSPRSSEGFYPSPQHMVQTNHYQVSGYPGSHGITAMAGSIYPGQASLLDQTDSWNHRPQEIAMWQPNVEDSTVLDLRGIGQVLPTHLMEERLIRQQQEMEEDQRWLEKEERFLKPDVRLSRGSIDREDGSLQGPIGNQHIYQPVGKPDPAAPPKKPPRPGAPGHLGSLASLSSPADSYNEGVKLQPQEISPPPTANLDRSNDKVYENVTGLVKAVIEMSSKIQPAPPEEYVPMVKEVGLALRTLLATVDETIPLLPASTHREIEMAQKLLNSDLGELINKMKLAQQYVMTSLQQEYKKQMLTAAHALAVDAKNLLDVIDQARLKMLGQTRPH

Assay [2] shares this target. Put plainly: proximity ligation; Duolink in situ PLA on fixed A375MM cells on fluorescent gelatin, rabbit anti-Shp1 and mouse anti-cortactin; untreated or 50 μM GroPIns for 1 h; IgG as negative control.

No constants are given. Whether binding was seen depends on the method and setting. Binding seen in cells or lysates may run through a third protein. Some results given as binding are weak or reduced against the parent protein; the word gives no strength.

Take “Cdc42, endogenous (from UniProt P60953 1-191)”: the binding entry in assay [1] was “no binding”.
Consider “Erk1, endogenous (from UniProt P27361 1-379) (enzyme)”, for which the binding result in assay [1] is listed as “no binding”.
As for “Erk2, endogenous (from UniProt P28482 1-360) (enzyme)”, the binding entry in assay [1] is given as “no binding”.
Consider “cortactin, endogenous (from UniProt Q14247 1-550)”, for which the binding entry in assay [2] and in assay [1] was “binds” each time.
“focal adhesion kinase (FAK), endogenous (from UniProt Q05397 1-1052) (enzyme)”: in assay [1], the binding entry is “no binding”.

For the origin of these results see publication PMC8176763.
